The values below come from the supplement of paper PMC10369915.

This is one part of the list. Rule as the data show it: active = 3.2 or more and inactive = the rest. Only a few entries rise above the background.
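Also: displayed peptides selected on beads carrying the immobilized SH2 domain, with library peptides lacking any tyrosine serving as negative controls.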

In the first assay the target is SHP2 C-SH2 domain E139D. The assay is described as follows: enrichment score (SH2-bound / input frequency) (ratio); bacterial display of known human phosphotyrosine sites (pTyr-Var adds point mutants) read by sequencing; higher = stronger binding; tyrosines were phosphorylated by kinases first. To be noted: peptide library: pTyr-Var.
Take FYLGAYDRFLP [SLC22A5_Y486_V481F]: the enrichment score was inactive: 2.24.

For SQSKGYRPKLF [SIPA1L3_Y1376_G1371S_YF], the enrichment score is inactive: 0.308.

As for IFLGAYDRFLP [SLC22A5_Y486_V481I_YF], the enrichment score is inactive: 1.9.

As for PANTVYSTVEI [SLAMF7_Y304], the enrichment score was inactive: 1.47.

Take RQNNSYTCFTA [SLC20A2_Y386_R382Q_YF]: the enrichment score was inactive: 0.83.

As to KQFWRYFAGNL [SLC25A4_Y112], the enrichment score is inactive: 1.42.

As to PDKRIYQFTAS [SKAP2_Y197_A202S], the enrichment score is inactive: 0.858.

Take QGIIIYRAAFF [SLC25A4_Y187_YF]: the enrichment score was inactive: 0.527.

For PANMVYSTVEI [SLAMF7_Y304_T302M], the enrichment score was inactive: 0.952.

Regarding EHFSYYGMKAV [SLC15A2_Y61_R57H], the enrichment score was inactive: 1.06.

On to QGIIIYRAAYF [SLC25A4_Y187], for which the enrichment score was inactive: 0.515.

Take AQESNYRLLRR [SLC20A2_Y377]: the enrichment score was inactive: 0.228.

In the case of TQFWLYFAGNL [SLC25A5_Y112], the enrichment score was inactive: 1.05.

As for QCQLKYSETPF [SIX6OS1_Y129_Y125C], the enrichment score is inactive: 0.868.

Turning to VFLGAYDHFLP [SLC22A5_Y486_R488H_YF], the enrichment score was inactive: 1.27.

On to RRNNSYTCYTA [SLC20A2_Y386], for which the enrichment score is inactive: 0.333.

Regarding ALPVFYAATIA [SLC20A2_Y187], the enrichment score was inactive: 0.695.

As for TLEKYYFAFPG [SLC1A1_Y51_F50Y], the enrichment score is inactive: 1.65.

The target of another assay is SHP2 C-SH2 domain wild-type. Described as above. Particulars: peptide library: pTyr-Var.
On to FYLGAYDRFLP [SLC22A5_Y486_V481F], for which the enrichment score is inactive: 1.63.

For the molecule SQSKGYRPKLF [SIPA1L3_Y1376_G1371S_YF], the enrichment score was inactive: 0.321.

As to IFLGAYDRFLP [SLC22A5_Y486_V481I_YF], the enrichment score was inactive: 1.85.

On to PANTVYSTVEI [SLAMF7_Y304], for which the enrichment score was inactive: 2.47.

Turning to RQNNSYTCFTA [SLC20A2_Y386_R382Q_YF], the enrichment score is inactive: 0.757.

For KQFWRYFAGNL [SLC25A4_Y112], the enrichment score was inactive: 0.981.

Consider PDKRIYQFTAS [SKAP2_Y197_A202S], for which the enrichment score is inactive: 0.693.

Consider QGIIIYRAAFF [SLC25A4_Y187_YF], for which the enrichment score was inactive: 0.639.

As for PANMVYSTVEI [SLAMF7_Y304_T302M], the enrichment score is inactive: 1.04.

For the molecule EHFSYYGMKAV [SLC15A2_Y61_R57H], the enrichment score is inactive: 0.944.

For the molecule QGIIIYRAAYF [SLC25A4_Y187], the enrichment score was inactive: 0.891.

On to AQESNYRLLRR [SLC20A2_Y377], for which the enrichment score was inactive: 0.227.

On to TQFWLYFAGNL [SLC25A5_Y112], for which the enrichment score was inactive: 1.69.

QCQLKYSETPF [SIX6OS1_Y129_Y125C]: the enrichment score is inactive: 0.843.

VFLGAYDHFLP [SLC22A5_Y486_R488H_YF]: the enrichment score is inactive: 1.25.

As for RRNNSYTCYTA [SLC20A2_Y386], the enrichment score is inactive: 0.328.

ALPVFYAATIA [SLC20A2_Y187]: the enrichment score was inactive: 0.874.

On to TLEKYYFAFPG [SLC1A1_Y51_F50Y], for which the enrichment score was inactive: 1.49.

Another assay has as its target SHP2 N-SH2 domain L43F. The assay is described as above. To be noted: peptide library: pTyr-Var.
Consider FYLGAYDRFLP [SLC22A5_Y486_V481F], for which the enrichment score is inactive: 1.91.

On to SQSKGYRPKLF [SIPA1L3_Y1376_G1371S_YF], for which the enrichment score is inactive: 0.332.

Consider IFLGAYDRFLP [SLC22A5_Y486_V481I_YF], for which the enrichment score is inactive: 1.94.

Regarding PANTVYSTVEI [SLAMF7_Y304], the enrichment score is inactive: 1.67.

In the case of RQNNSYTCFTA [SLC20A2_Y386_R382Q_YF], the enrichment score is inactive: 0.583.

In the case of KQFWRYFAGNL [SLC25A4_Y112], the enrichment score is inactive: 1.07.

Turning to PDKRIYQFTAS [SKAP2_Y197_A202S], the enrichment score was inactive: 0.737.

With QGIIIYRAAFF [SLC25A4_Y187_YF], the enrichment score was inactive: 0.4.

Turning to PANMVYSTVEI [SLAMF7_Y304_T302M], the enrichment score was inactive: 1.16.

Consider EHFSYYGMKAV [SLC15A2_Y61_R57H], for which the enrichment score was inactive: 0.801.

On to QGIIIYRAAYF [SLC25A4_Y187], for which the enrichment score is inactive: 0.963.

Regarding AQESNYRLLRR [SLC20A2_Y377], the enrichment score was inactive: 0.258.

With TQFWLYFAGNL [SLC25A5_Y112], the enrichment score was inactive: 0.858.

Turning to QCQLKYSETPF [SIX6OS1_Y129_Y125C], the enrichment score was inactive: 0.75.

For VFLGAYDHFLP [SLC22A5_Y486_R488H_YF], the enrichment score was inactive: 1.23.

RRNNSYTCYTA [SLC20A2_Y386]: the enrichment score is inactive: 0.19.

For the molecule ALPVFYAATIA [SLC20A2_Y187], the enrichment score was inactive: 0.79.

In the case of TLEKYYFAFPG [SLC1A1_Y51_F50Y], the enrichment score is inactive: 1.68.

In another assay the target is SHP2 N-SH2 domain T42A. The description is as above. Particulars: peptide library: pTyr-Var.
Turning to FYLGAYDRFLP [SLC22A5_Y486_V481F], the enrichment score was inactive: 2.03.

For the molecule SQSKGYRPKLF [SIPA1L3_Y1376_G1371S_YF], the enrichment score is inactive: 0.329.

As for IFLGAYDRFLP [SLC22A5_Y486_V481I_YF], the enrichment score was inactive: 1.88.

Consider PANTVYSTVEI [SLAMF7_Y304], for which the enrichment score is active: 3.4.

In the case of RQNNSYTCFTA [SLC20A2_Y386_R382Q_YF], the enrichment score was inactive: 0.572.

For the molecule KQFWRYFAGNL [SLC25A4_Y112], the enrichment score was inactive: 1.06.

With PDKRIYQFTAS [SKAP2_Y197_A202S], the enrichment score is inactive: 0.627.

For the molecule QGIIIYRAAFF [SLC25A4_Y187_YF], the enrichment score was inactive: 0.507.

As to PANMVYSTVEI [SLAMF7_Y304_T302M], the enrichment score is inactive: 1.8.

EHFSYYGMKAV [SLC15A2_Y61_R57H]: the enrichment score was inactive: 0.745.

For the molecule QGIIIYRAAYF [SLC25A4_Y187], the enrichment score was inactive: 1.07.

As for AQESNYRLLRR [SLC20A2_Y377], the enrichment score was inactive: 0.202.

As to TQFWLYFAGNL [SLC25A5_Y112], the enrichment score was inactive: 1.04.

As to QCQLKYSETPF [SIX6OS1_Y129_Y125C], the enrichment score is inactive: 0.614.

As to VFLGAYDHFLP [SLC22A5_Y486_R488H_YF], the enrichment score is inactive: 1.28.

Regarding RRNNSYTCYTA [SLC20A2_Y386], the enrichment score was inactive: 0.282.

For the molecule ALPVFYAATIA [SLC20A2_Y187], the enrichment score is inactive: 1.68.

Regarding TLEKYYFAFPG [SLC1A1_Y51_F50Y], the enrichment score is inactive: 1.36.

A further assay deals with SHP2 N-SH2 domain T52S. The assay is described as above. To be noted: peptide library: pTyr-Var.
On to FYLGAYDRFLP [SLC22A5_Y486_V481F], for which the enrichment score is inactive: 1.83.

On to SQSKGYRPKLF [SIPA1L3_Y1376_G1371S_YF], for which the enrichment score was inactive: 0.342.

As for IFLGAYDRFLP [SLC22A5_Y486_V481I_YF], the enrichment score is inactive: 1.73.

PANTVYSTVEI [SLAMF7_Y304]: the enrichment score is inactive: 1.58.

Take RQNNSYTCFTA [SLC20A2_Y386_R382Q_YF]: the enrichment score was inactive: 0.613.

Turning to KQFWRYFAGNL [SLC25A4_Y112], the enrichment score was inactive: 1.17.

Take PDKRIYQFTAS [SKAP2_Y197_A202S]: the enrichment score was inactive: 0.665.

In the case of QGIIIYRAAFF [SLC25A4_Y187_YF], the enrichment score is inactive: 0.66.

Regarding PANMVYSTVEI [SLAMF7_Y304_T302M], the enrichment score is inactive: 1.57.

In the case of EHFSYYGMKAV [SLC15A2_Y61_R57H], the enrichment score is inactive: 1.03.

In the case of QGIIIYRAAYF [SLC25A4_Y187], the enrichment score was inactive: 1.05.

In the case of AQESNYRLLRR [SLC20A2_Y377], the enrichment score was inactive: 0.242.

TQFWLYFAGNL [SLC25A5_Y112]: the enrichment score is inactive: 1.06.

On to QCQLKYSETPF [SIX6OS1_Y129_Y125C], for which the enrichment score is inactive: 0.808.

Turning to VFLGAYDHFLP [SLC22A5_Y486_R488H_YF], the enrichment score is inactive: 1.23.

Regarding RRNNSYTCYTA [SLC20A2_Y386], the enrichment score was inactive: 0.44.

Take ALPVFYAATIA [SLC20A2_Y187]: the enrichment score is inactive: 0.902.

For the molecule TLEKYYFAFPG [SLC1A1_Y51_F50Y], the enrichment score is inactive: 1.19.

Another assay concerns the target SHP2 N-SH2 domain wild-type. The description is as above. To be noted: peptide library: pTyr-Var.
FYLGAYDRFLP [SLC22A5_Y486_V481F]: the enrichment score is inactive: 1.85.

Take SQSKGYRPKLF [SIPA1L3_Y1376_G1371S_YF]: the enrichment score is inactive: 0.457.

As for IFLGAYDRFLP [SLC22A5_Y486_V481I_YF], the enrichment score is inactive: 1.75.

On to PANTVYSTVEI [SLAMF7_Y304], for which the enrichment score is inactive: 1.08.

With RQNNSYTCFTA [SLC20A2_Y386_R382Q_YF], the enrichment score is inactive: 0.563.

KQFWRYFAGNL [SLC25A4_Y112]: the enrichment score was inactive: 0.93.

Turning to PDKRIYQFTAS [SKAP2_Y197_A202S], the enrichment score was inactive: 0.727.

As for QGIIIYRAAFF [SLC25A4_Y187_YF], the enrichment score is inactive: 0.885.

On to PANMVYSTVEI [SLAMF7_Y304_T302M], for which the enrichment score is inactive: 0.927.

Turning to EHFSYYGMKAV [SLC15A2_Y61_R57H], the enrichment score is inactive: 0.86.

As for QGIIIYRAAYF [SLC25A4_Y187], the enrichment score was inactive: 0.83.

With AQESNYRLLRR [SLC20A2_Y377], the enrichment score is inactive: 0.175.

For the molecule TQFWLYFAGNL [SLC25A5_Y112], the enrichment score was inactive: 1.58.

As for QCQLKYSETPF [SIX6OS1_Y129_Y125C], the enrichment score is inactive: 0.849.

For VFLGAYDHFLP [SLC22A5_Y486_R488H_YF], the enrichment score is inactive: 1.19.

RRNNSYTCYTA [SLC20A2_Y386]: the enrichment score was inactive: 0.264.

Take ALPVFYAATIA [SLC20A2_Y187]: the enrichment score was inactive: 0.871.

Take TLEKYYFAFPG [SLC1A1_Y51_F50Y]: the enrichment score is inactive: 1.27.
